# The other results are listed elsewhere or left out.
# B1: PhoQ; a variant is named by its letters at X, in order, P23837 (parent)
# chain: MKKLLRLFFPLSLRVRFLLATAAVVLVLSLAYGMVALIGYSVSFDKTTFRLLRGESNLFYTLAKWENNKLHVELPENIDKQSPTMTLIYDENGQLLWAQRDVPWLMKMIQPDWLKSNGFHEIEADVNDTSLLLSGDHSIQQQLQEVREDDDDAEMTHSVAVNVYPATSRMPKLTIVVVDTIPVELKSSYMVWSWFIYVLSANLLLVIPLLWVAAWWSLRPIEALAKEVRELEEHNRELLNPATTRELTSLVRNLNRLLKSERERYDKYRTTLTDLTHSLKTPLXXLQXXLRSLRSEKMSVSDAEPVMLEQISRISQQIGYYLHRASMRGGTLLSRELHPVAPLLDNLTSALNKVYQRKGVNISLDISPEISFVGEQNDFVEVMGNVLDNACKYCLEFVEISARQTDEHLYIVVEDDGPGIPLSKREVIFDRGQRVDTLRPGQGVGLAVAREITEQYEGKIVAGESMLGGARMEVIFGRQHSAPKDE
# Variants of: B1
# Assay: enrichment ratio after two sorts for PhoP signalling (ratio (wild type AVST 3.29)); higher = more functional
# Conditions: with PhoP (E. coli)
row,Variant,enrichment ratio
1,YAPT,≤ 0.25
2,LSKT,≤ 0.25
3,WCHS,≤ 0.25
4,HEIQ,≤ 0.25
5,GEGF,≤ 0.25
6,RWGM,≤ 0.25
7,ERNT,≤ 0.25
8,INGS,≤ 0.25
9,RVFD,≤ 0.25
10,EVSH,≤ 0.25
11,EIGH,≤ 0.25
12,GMMC,≤ 0.25
13,ALAL,9.66
14,DAFM,≤ 0.25
15,ESND,≤ 0.25
16,VHKS,≤ 0.25
17,MCSN,3.34
18,QYLK,≤ 0.25
19,SMRW,≤ 0.25
20,KFPK,≤ 0.25
21,KAPQ,≤ 0.25
22,TAHT,9.29
23,NSHC,≤ 0.25
24,EDKW,≤ 0.25

row,Variant,enrichment ratio
1,TYIP,≤ 0.25
2,NMSD,≤ 0.25
3,IWYR,≤ 0.25
4,AAQK,≤ 0.25
5,QVGW,2.43
6,FKCQ,≤ 0.25
7,DSFE,≤ 0.25
8,LFER,≤ 0.25
9,KCPM,≤ 0.25
10,NVAC,≤ 0.25
11,GIPH,≤ 0.25
12,SLIF,≤ 0.25
13,HQTS,≤ 0.25
14,IQFP,≤ 0.25
15,IWHK,≤ 0.25
16,CLYR,≤ 0.25
17,VCWF,≤ 0.25
18,QEFI,7.3
19,VMCC,3
20,MSFA,2.31
21,QPER,≤ 0.25
22,YLMR,≤ 0.25
23,TVKW,≤ 0.25
24,LKRD,≤ 0.25

row,Variant,enrichment ratio
1,FNMW,≤ 0.25
2,YKAL,≤ 0.25
3,LGSG,≤ 0.25
4,TYGE,≤ 0.25
5,ILTW,≤ 0.25
6,SPLV,≤ 0.25
7,MMNP,≤ 0.25
8,VSHS,≤ 0.25
9,PQCA,≤ 0.25
10,TPML,≤ 0.25
11,TYGK,≤ 0.25
12,EIFA,≤ 0.25
13,TARH,≤ 0.25
14,LESC,≤ 0.25
15,DMGE,≤ 0.25
16,MMHW,≤ 0.25
17,LRRH,≤ 0.25
18,RCLI,≤ 0.25
19,LWYF,≤ 0.25
20,KMNT,≤ 0.25
21,ASDF,≤ 0.25
22,YVLH,0.392
23,RSEF,≤ 0.25
24,WYKY,≤ 0.25

row,Variant,enrichment ratio
1,FHQG,≤ 0.25
2,YAWE,≤ 0.25
3,YTSG,≤ 0.25
4,PAFV,≤ 0.25
5,ISLC,1.87
6,NISN,0.755
7,EYEK,≤ 0.25
8,TRRE,≤ 0.25
9,ENVM,≤ 0.25
10,ITSC,≤ 0.25
11,AKIH,7.98
12,SIQR,4.31
13,RELF,≤ 0.25
14,RPPT,≤ 0.25
15,PERL,≤ 0.25
16,IAMP,≤ 0.25
17,WEPD,≤ 0.25
18,WCYN,≤ 0.25
19,NQTR,≤ 0.25
20,TEWD,13
21,AHNA,≤ 0.25
22,HNLG,≤ 0.25
23,LTMD,≤ 0.25
24,YEMM,16.1

row,Variant,enrichment ratio
1,ACFY,≤ 0.25
2,PYND,≤ 0.25
3,FHAN,≤ 0.25
4,VCCY,≤ 0.25
5,HYSE,≤ 0.25
6,HTFV,≤ 0.25
7,GENH,≤ 0.25
8,LSHP,≤ 0.25
9,SLRR,≤ 0.25
10,SSLY,8.15
11,LESI,≤ 0.25
12,EFRR,≤ 0.25
13,HMRL,≤ 0.25
14,RLDL,≤ 0.25
15,DICY,≤ 0.25
16,RCIS,≤ 0.25
17,DRGR,≤ 0.25
18,RTDM,≤ 0.25
19,LGVW,≤ 0.25
20,FLWM,≤ 0.25
21,EASY,≤ 0.25
22,TSMR,0.767
23,YWSA,≤ 0.25
24,MVGT,≤ 0.25

row,Variant,enrichment ratio
1,AKIV,9.06
2,MSLY,0.424
3,HQAC,≤ 0.25
4,NRHY,≤ 0.25
5,KAFY,≤ 0.25
6,SNFC,≤ 0.25
7,WVVR,≤ 0.25
8,YTNL,≤ 0.25
9,KYQY,≤ 0.25
10,KKPR,≤ 0.25
11,QTWT,≤ 0.25
12,GQLE,14.3
13,TAFW,≤ 0.25
14,IHQY,≤ 0.25
15,RFWC,≤ 0.25
16,FDDE,≤ 0.25
17,RFSS,≤ 0.25
18,EMCV,≤ 0.25
19,INEY,≤ 0.25
20,PVYI,≤ 0.25
21,SNMC,6.92
22,EKLT,≤ 0.25
23,NANW,≤ 0.25
24,STIS,8.13

row,Variant,enrichment ratio
1,KKQY,≤ 0.25
2,IQVP,≤ 0.25
3,YFRF,≤ 0.25
4,DRNL,2.65
5,KDLY,≤ 0.25
6,RMDP,≤ 0.25
7,FIKR,≤ 0.25
8,TFQR,0.827
9,SSTE,1.25
10,SWWT,≤ 0.25
11,NKFR,≤ 0.25
12,IGFK,≤ 0.25
13,VICD,≤ 0.25
14,QQIH,≤ 0.25
15,AYRI,≤ 0.25
16,AFEW,≤ 0.25
17,STRL,≤ 0.25
18,PMYG,≤ 0.25
19,DFWV,≤ 0.25
20,GAEW,≤ 0.25
21,GLMN,≤ 0.25
22,RPTN,≤ 0.25
23,RLNW,≤ 0.25
24,MAGQ,3.61

row,Variant,enrichment ratio
1,GDVM,28.9
2,MDAT,25.1
3,WFPP,≤ 0.25
4,GPII,≤ 0.25
5,WPYI,≤ 0.25
6,MQPE,≤ 0.25
7,YYVN,≤ 0.25
8,KFGW,≤ 0.25
9,TVPK,≤ 0.25
10,GYHL,≤ 0.25
11,IQIM,≤ 0.25
12,PNPF,≤ 0.25
13,PCHY,≤ 0.25
14,GSNQ,≤ 0.25
15,VCME,≤ 0.25
16,MNYQ,≤ 0.25
17,QLVY,≤ 0.25
18,WLFY,≤ 0.25
19,GIER,5.58
20,LYNA,≤ 0.25
21,TQEW,≤ 0.25
22,FCDS,≤ 0.25
23,RGIH,≤ 0.25
24,TSEE,≤ 0.25

row,Variant,enrichment ratio
1,KASC,≤ 0.25
2,MVIW,≤ 0.25
3,YRES,≤ 0.25
4,PNRP,≤ 0.25
5,VANC,≤ 0.25
6,ISVK,≤ 0.25
7,TRRM,≤ 0.25
8,WKKI,≤ 0.25
9,MIEY,≤ 0.25
10,GWYF,≤ 0.25
11,NCST,1.6
12,PNTQ,≤ 0.25
13,SWID,≤ 0.25
14,ICGH,≤ 0.25
15,NQSS,≤ 0.25
16,LEQQ,≤ 0.25
17,YNPW,≤ 0.25
18,TIAF,0.285
19,WEST,≤ 0.25
20,YNRW,≤ 0.25
21,NCFP,≤ 0.25
22,PNRE,≤ 0.25
23,DPLL,≤ 0.25
24,DHSY,≤ 0.25

row,Variant,enrichment ratio
1,MEHD,≤ 0.25
2,WCGY,≤ 0.25
3,KKPP,≤ 0.25
4,FMRS,≤ 0.25
5,YREG,≤ 0.25
6,WYLL,≤ 0.25
7,VMYE,≤ 0.25
8,IFIS,≤ 0.25
9,AFWG,≤ 0.25
10,WMKV,≤ 0.25
11,VWIR,≤ 0.25
12,ISQG,≤ 0.25
13,NQNQ,≤ 0.25
14,YYCV,≤ 0.25
15,EIKY,≤ 0.25
16,TDCV,7.34
17,FFID,≤ 0.25
18,KAWF,≤ 0.25
19,NFGN,≤ 0.25
20,NQDD,≤ 0.25
21,LHKY,≤ 0.25
22,GAIV,≤ 0.25
23,TTNN,17.8
24,SPMQ,≤ 0.25

row,Variant,enrichment ratio
1,TLAA,3.45
2,VAAW,≤ 0.25
3,WSCS,≤ 0.25
4,GCRW,≤ 0.25
5,WRIG,≤ 0.25
6,QPHA,≤ 0.25
7,YCRI,≤ 0.25
8,TYKL,≤ 0.25
9,GIIM,1.99
10,RVFK,≤ 0.25
11,FPCW,≤ 0.25
12,LDPT,≤ 0.25
13,FQSY,≤ 0.25
14,SVPP,≤ 0.25
15,WYWN,≤ 0.25
16,AQEW,≤ 0.25
17,AWFL,≤ 0.25
18,HMKW,≤ 0.25
19,LPQS,≤ 0.25
20,DWRT,≤ 0.25
21,YMWI,≤ 0.25
22,YLIC,≤ 0.25
23,AFVW,≤ 0.25
24,VNPQ,≤ 0.25

row,Variant,enrichment ratio
1,KKIH,≤ 0.25
2,YNYM,≤ 0.25
3,SMSH,9.89
4,ANPE,≤ 0.25
5,ECFY,≤ 0.25
6,TVHR,≤ 0.25
7,SCEF,≤ 0.25
8,KLPE,≤ 0.25
9,RKNI,≤ 0.25
10,TNIF,≤ 0.25
11,KHIL,≤ 0.25
12,IMMW,≤ 0.25
13,NLVF,≤ 0.25
14,YFCE,≤ 0.25
15,FNTH,≤ 0.25
16,LPHL,≤ 0.25
17,DWAV,≤ 0.25
18,GSYG,≤ 0.25
19,SRRW,≤ 0.25
20,TDFN,≤ 0.25
21,NQLS,≤ 0.25
22,FQQY,≤ 0.25
23,QNVQ,≤ 0.25
24,SSWS,≤ 0.25

row,Variant,enrichment ratio
1,MQHI,≤ 0.25
2,EHIA,≤ 0.25
3,TFKL,≤ 0.25
4,YIPR,≤ 0.25
5,AWMG,≤ 0.25
6,DWRR,≤ 0.25
7,QGYI,17.5
8,TIMV,1.5
9,NDSC,≤ 0.25
10,QDPW,≤ 0.25
11,LAPF,≤ 0.25
12,PQGQ,≤ 0.25
13,ETVS,≤ 0.25
14,RWLW,≤ 0.25
15,IFVT,≤ 0.25
16,EIHC,≤ 0.25
17,GRYT,≤ 0.25
18,NVRH,≤ 0.25

# Source: a collection of fitness landscapes (doi:10.1126/science.1257360)
